How the values were obtained:
EPR spectroscopy = molecular target: the molecule itself; experiment: EPR spectroscopy
[1] = molecular target: oligomeric Aβ(1-40) (AβO); experiment: EPR spectroscopy

B1: apoE[…]C, spin labeled at position 264 (natural protein)
chain: not shown
modifications: MTS-SL nitroxide spin label on the Cys at position 264
Question: Does B1 bind (EPR spectroscopy)?
Answer: binds

Question: And the Kd [1]?
Answer: 27 µM

Source: paper PMC3016465 (Proteins, 2011)
